Test [1] concerns A2780adr ovarian cancer cells. The test can be described thus: Induction of apoptosis (caspase 3 activity) in doxorubicin-resistant ovarian cancer cells. To be noted: for Effect: Ovarian cancer, antibody combined with Doxorubicin, In vitro; for caspase 3 activity: 72 hours of treatment. It counts as cell-based, human. How it is done: The percentage increased caspase 3 activity over non-treated cells is indicated. Cells were treated with a human isotype control IgG (Control IgG), anti-MIF antibody RAM0 or RAM9 alone, a combination of control IgG and doxorubicin (Control IgG+Dox), doxorubicin alone (Dox) or a combination of anti-MIF antibody and doxorubicin (RAM0+Dox or RAM9+Dox).
The induction of apoptosis was assessed by detection of caspase 3 activity after 72 hours of treatment.

For a further test, the target named is T1, oxMIF (Homo sapiens, UniProt P14174).
T1 sequence (P14174 2-115 limits assumed): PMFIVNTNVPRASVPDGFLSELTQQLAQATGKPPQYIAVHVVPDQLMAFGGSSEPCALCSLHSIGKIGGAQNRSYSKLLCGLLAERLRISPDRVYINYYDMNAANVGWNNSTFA
The test can be described thus: Differential binding of the antibodies to oxMIF (ELISA or Biacore). The procedure: (§1) The anti-oxMIF antibodies described in this invention are able to discriminate between ox and red MIF, which are generated by mild oxidation or reduction, respectively. The anti-oxMIF antibodies are useful to specifically detect oxMIF. Discrimination between these conformers is assessed by ELISA or surface plasmon resonance. Both techniques can be performed as well known to a person skilled in the art and as described below.
(§2) The antibodies were coated on a CM5 (=carboxymethylated dextran) chip and recombinant MIF protein, pre-incubated with 0.2% Proclin300, were injected. (Proclin300 consists of oxidative isothiazolones that stabilize the oxMIF structure).
(§3) The antibodies of the invention, as defined hereinabove and hereinafter, have the same specificities. They thus also show similar results in the experiments as carried out by the present inventors.

Test [2] has as its system BxPC3 human pancreatic cancer cells. The test can be described thus: Orthotopic BxPC3 xenograft model for pancreatic cancer in nude mice (survival). It is filed as in vivo. The procedure:
Control groups were left untreated (left and right panel, dotted black line) or were treated with a control human monoclonal antibody (Control IgG, left panel, solid grey line) or with gemcitabine alone (Gemcitabine, left panel, solid black line). The survival curves represent the points in time when animals had to be sacrificed in accordance with UK Home Office Guidance.
(§4) BxPC3 cells are derived from a human pancreatic adenocarcinoma and grow inside the pancreas once they have been injected orthotopically in nude mice and present as a solid tumor. CD1-Foxn1/nu nude mice are orthotopically inoculated with 1×10^6 BxPC3 cells (injection of 30 μl matrigel:tumor cell suspension into the pancreas) and the tumor was allowed to establish for 7 days. […] Additional control groups were left untreated or received a control human IgG1 monoclonal antibody. The growth of internal tumors was judged by external signs (e.g. abdominal distension causing more than 20% increase in normal body weight, or a 20% loss in normal body weight) or clinical signs (e.g. dyspnoea, jaundice, neurological signs, digestive disturbances). Animals reaching the home office limit according to the UK home office guidance were sacrificed (for animal welfare reasons). The resulting survival curve was used as primary outcome of the study.

Another test addresses T2, redMIF (Homo sapiens, UniProt P14174).
T2 sequence (P14174 1-115): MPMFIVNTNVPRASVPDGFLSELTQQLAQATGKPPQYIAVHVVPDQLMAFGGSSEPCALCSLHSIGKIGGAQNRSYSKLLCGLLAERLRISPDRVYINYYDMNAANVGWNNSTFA
The test can be described thus: Differential binding of the antibodies to redMIF (ELISA or Biacore). Conditions: MIF in its reduced state. How it is done: as §1, §2, §3

The test system of the next test is A2780 xenografts. The test can be described thus: A2780 ovarian cancer xenograft in Mf1 nude mice (tumor growth). It is filed as in vivo, human. How it is done:
Tumor weights are indicated after treatment of inoculated mice with a human control IgG or with RAM0. Antibodies were applied either alone or in combination with cisplatin.
This effect is of high relevance, in particular if it can also be observed in vivo. This was explored in female Mf1 nude mice inoculated with A2780 xenografts (FIG. 5). Mice (n=10/group) were inoculated with 1*10^6 A2780 cells resuspended in matrigel. […] Cisplatin was administered once a week starting on day 2 after xenograft inoculation.
A general note: In xenograft studies the graft and the host belong to different species.

For another test, the system named is A2780 cells. The test can be described thus: Cisplatin-dependent cell killing assay (calcein-AM, flow cytometry). It is filed as cell-based, human. How it is done: Data are the means±standard deviation of 9 independent experiments.
After 48 hours of incubation cells were detached with Accutase™, labeled with calcein-AM and the level of calcein fluorescence was determined by flow cytometry. The mean fluorescence intensity in the absence of any drug or antibody was set to 1 to normalize for interassay variations. The mean fluorescent intensities were blotted against the cisplatin concentration and the half maximum active concentrations of cisplatin (EC50-values) were calculated.

A further test deals with LnCAP cells. The test can be described thus: Mitoxantrone-dependent cell killing assay (calcein-AM, flow cytometry). It counts as cell-based, human. The procedure: The single values as well as the mean±standard deviation of 10 independent experiments are shown.
After 48 hours of incubation cells were detached with Accutase™, labeled with calcein-AM and the level of calcein fluorescence was determined by flow cytometry. The mean fluorescence intensity in the absence of any drug or antibody was set to 1 to normalize for interassay variations. The mean fluorescent intensities were plotted against the mitoxantrone concentration and the half maximum active concentrations of mitoxantrone (EC50-values) were calculated.

In test [3] the test system is Colo357 human pancreatic cancer cell line. The test can be described thus: Orthotopic Colo357 xenograft model for pancreatic cancer in nude mice (survival, tumor volume, microvessel density). It counts as in vivo. To be noted: for blood vessel density in the tumour microenvironment: day 12, FITC-conjugated tomato lectin. How it is done:
Control groups were left untreated or were treated with gemcitabine alone (Gem) or a control human monoclonal antibody alone (Control) or with a control human monoclonal antibody in combination with gemcitabine (Control+Gem). (A) Survival curves representing the points in time when animals had to be sacrificed in accordance with UK Home Office Guidance. (B) Tumor volume was measured in as subset of animals after animals had been sacrificed on day 20 after cell implantation. (C) After treatment, mice bearing a Colo357 xenograft were injected i.v. with the FITC-conjugated tomato lectin to visualize the blood vessels on day 12. Microvessel density was quantified using ImagePro Plus software (Image-Pro plus, Media Cybernetics) and vessel density was expressed as the mean percentage of total surface area.
as §4, with “CD1-Foxn1/nu” for “BxPC3 cells are derived from a human pancreatic adenocarcinoma and grow inside the pancreas once they have been injected orthotopically in nude mice and present as a solid tumor. CD1-Foxn1/nu”, “1×10^5 Colo357” for “1×10^6 BxPC3”
We further analyzed […] vessel density in a small cohort of animals. All mice were orthotopically injected with Colo357 cells, tumours were established for 1 week and the different groups were treated as described above. On day 12, mice were anesthetized and injected with FITC-conjugated tomato lectin to visualize the blood vessel density within the tumor. The lectins were allowed to circulate for 3 min before animals were perfused with 4% paraformaldehyde. Tumors were cut into 50 μm sections. Cell nuclei were stained using propidium iodide, and vessels were visualized using confocal microscopy (Zeiss LSM 510 META), and microvessel density was quantified using ImagePro Plus software (Image-Pro plus, Media Cybernetics). Vessel density was expressed as the mean

The mark [4] stands for this setting: anti-MIF antibody in combination with doxorubicin.
The mark [5] stands for this setting: Pancreatic cancer, antibody combined with Gemcitabine, In vivo.

This is an account of results in US20150071942A1, “COMBINATION THERAPY OF ANTI-MIF ANTIBODIES AND CHEMOTHERAPEUTICS” (Baxter Healthcare SA, priority 2012, published 2015).

B1: RAM9: fully human anti-MIF (anti-oxMIF) antibody; heavy chain SEQ ID NO: 11, light chain SEQ ID NO: 12; DSM 25860/25859 (antibody)
heavy: EVQLLESGGGLVQPGGSLRLSCAASGFTFSIYSMNWVRQAPGKGLEWVSSIGSSGGTTYYADSVKGRFTISRDNSKNTLYLQMNSLRAEDTAVYYCAGSQWLYGMDVWGQGTTVTVSSASTKGPSVFPLAPSSKSTSGGTAALGCLVKDYFPEPVTVSWNSGALTSGVHTFPAVLQSSGLYSLSSVVTVPSSSLGTQTYICNVNHKPSNTKVDKRV[here human IgG1 Fc without letters]
light: DIQMTQSPSSLSASVGDRVTITCRSSQRIMTYLNWYQQKPGKAPKLLIFVASHSQSGVPSRFRGSGSETDFTLTISGLQPEDSATYYCQQSFWTPLTFGGGTKVEIKRTVAAPSVFIFPPSDEQLKSGTASVVCLLNNFYPREAKVQWKVDNALQSGNSQESVTEQDSKDSTYSLSSTLTLSKADYEKHKVYACEVTHQGLSSPVTKSFNRGEC
modifications: RAM9hc; RAM9lc
notes: fully human anti-MIF (anti-oxMIF) antibody; DSM 25860/25859
In the case of B1, the Effect result in test [1] and in test [2] (setting [5]) was “Synergy” throughout. Further, the “caspase 3 activity” value in test [1] (agent alone) was “did not show any enhanced caspase 3 activity”; in test [1] (setting [4]), “further enhanced caspase 3 activity”. Further, the “binding to oxMIF” value with oxMIF is “specifically bind to oxMIF”. Moreover, in test [2] (60 mg/kg RAM9 in combination with 100 mg/kg gemcitabine), the “overall survival of the mice” value is given as 20%. Further, the “survival of the xenografted mice” value in test [2] (60 mg/kg RAM9 in combination with 100 mg/kg gemcitabine, compared to either agent alone) is given as “substantial survival advantage”. Moreover, the “binding to redMIF” value with redMIF was “incapable of binding to redMIF”.

B2: RAM0: fully human anti-MIF (anti-oxMIF) antibody; heavy chain SEQ ID NO: 9, light chain SEQ ID NO: 10; DSM 25864/25863 (antibody)
heavy: EVQLLESGGGLVQPGGSLRLSCAASGFTFSWYAMDWVRQAPGKGLEWVSGIYPSGGRTKYADSVKGRFTISRDNSKNTLYLQMNSLRAEDTAVYYCARVNVIAVAGTGYYYYGMDVWGQGTTVTVSSASTKGPSVFPLAPSSKSTSGGTAALGCLVKDYFPEPVTVSWNSGALTSGVHTFPAVLQSSGLYSLSSVVTVPSSSLGTQTYICNVNHKPSNTKVDKRV[here human IgG1 Fc without letters]
light: DIQMTQSPGTLSLSPGERATLSCRASQGVSSSSLAWYQQKPGQAPRLLIYGTSSRATGIPDRFSGSASGTDFTLTISRLQPEDFAVYYCQQYGRSLTFGGGTKVEIKRTVAAPSVFIFPPSDEQLKSGTASVVCLLNNFYPREAKVQWKVDNALQSGNSQESVTEQDSKDSTYSLSSTLTLSKADYEKHKVYACEVTHQGLSSPVTKSFNRGEC
modifications: RAM0hc; RAM0lc
notes: fully human anti-MIF (anti-oxMIF) antibody; DSM 25864/25863
On to B2, for which the Effect entry is listed as “Synergy” in the test on A2780 xenografts (Ovarian cancer, antibody combined with Cisplatin, In vivo); “Synergy” in the test on A2780 cells (Ovarian cancer, antibody combined with Cisplatin, In vitro); “Synergy” in the test with LnCAP cells (Prostate cancer, antibody combined with Mitoxantrone, In vitro); “Synery” in test [1]; “Synergy” in test [3] (setting [5]). Further, the tumor growth entry with A2780 xenografts (RAM0 15 mg/kg in combination with cisplatin, p=0.04) is listed as “significantly reduced tumor growth”; with A2780 xenografts (monotherapy, RAM0 15 mg/kg every other day or cisplatin once a week) it was “minor but not significant effect”. The cell killing result in the test on A2780 cells (antibody as monotherapy (in absence of cisplatin), in comparison to isotype control antibody, data not shown) is recorded as “no effect on cell killing”; in the test on LnCAP cells (antibody as monotherapy (in absence of mitoxantrone), in comparison to isotype control antibody, data not shown), “no effect on cell killing”. Besides, the “caspase 3 activity” value in test [1] (agent alone) was “did not show any enhanced caspase 3 activity”; in test [1] (setting [4]), “further enhanced caspase 3 activity”. The “binding to oxMIF” value with oxMIF is “specifically bind to oxMIF”. The survival result in test [3] (60 mg/kg RAM0 in combination with 100 mg/kg gemcitabine) was “greater than the effect of the two agents alone”; in test [3] (monotherapy, gemcitabine 100 mg/kg or RAM0 60 mg/kg alone, i.p., Colo357 in nude mice), “significant effect on survival”. In addition, the tumor volume result in test [3] (60 mg/kg RAM0 in combination with 100 mg/kg gemcitabine, day 20 after cell implantation) is listed as “strongly reduced tumor volume”. Also, the “blood vessel density in the tumour microenvironment” value is “normalises blood vessel density” in test [3] (RAM0 in combination with gemcitabine) and “Neither gemcitabine nor RAM0 have a significant effect” in test [3] (monotherapy). Further, in the test with redMIF, the “binding to redMIF” value is given as “incapable of binding to redMIF”.
